Laboratory results: PMC3709894
Results are given in words; binding and its absence hold for the method and conditions named. Binding seen in cells or lysates may run through a third protein. Some results given as binding are weak or reduced against the parent protein; the word gives no strength. For some assays here: Where a sequence is shown, tags or fusion partners need not be part of it.

How the values were obtained:
[1] = target: T1, Flag-Rad21 Del(383–392 aa), full length devoid of 383–392 aa (human) (UniProt O60216); assay: co-IP; 293 T cells transfected with pFlag CMV2 Rad21 constructs; IP of Flag-Rad21 (Flag mAb agarose beads) from whole cell lysate, blots of endogenous cohesin subunits and associated proteins
T1 sequence: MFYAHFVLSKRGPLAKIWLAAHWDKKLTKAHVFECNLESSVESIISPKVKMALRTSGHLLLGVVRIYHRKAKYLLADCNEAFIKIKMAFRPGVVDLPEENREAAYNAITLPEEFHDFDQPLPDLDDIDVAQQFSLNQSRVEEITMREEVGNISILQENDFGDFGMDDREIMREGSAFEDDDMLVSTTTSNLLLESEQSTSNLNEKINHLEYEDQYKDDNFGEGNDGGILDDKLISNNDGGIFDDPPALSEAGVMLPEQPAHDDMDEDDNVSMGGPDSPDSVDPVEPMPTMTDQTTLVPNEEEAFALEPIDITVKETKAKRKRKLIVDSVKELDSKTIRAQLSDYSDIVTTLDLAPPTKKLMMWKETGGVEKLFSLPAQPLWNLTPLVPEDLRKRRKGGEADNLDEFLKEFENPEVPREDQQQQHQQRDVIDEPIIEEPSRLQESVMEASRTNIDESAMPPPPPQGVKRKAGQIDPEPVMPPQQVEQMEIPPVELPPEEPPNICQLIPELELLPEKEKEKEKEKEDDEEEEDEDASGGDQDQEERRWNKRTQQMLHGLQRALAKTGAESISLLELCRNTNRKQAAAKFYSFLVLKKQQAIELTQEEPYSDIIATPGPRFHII

[2] = target: T2, Flag-Rad21 triple mutant (TM) L385A F389A T390A (human) (UniProt O60216); assay: as above
T2 sequence: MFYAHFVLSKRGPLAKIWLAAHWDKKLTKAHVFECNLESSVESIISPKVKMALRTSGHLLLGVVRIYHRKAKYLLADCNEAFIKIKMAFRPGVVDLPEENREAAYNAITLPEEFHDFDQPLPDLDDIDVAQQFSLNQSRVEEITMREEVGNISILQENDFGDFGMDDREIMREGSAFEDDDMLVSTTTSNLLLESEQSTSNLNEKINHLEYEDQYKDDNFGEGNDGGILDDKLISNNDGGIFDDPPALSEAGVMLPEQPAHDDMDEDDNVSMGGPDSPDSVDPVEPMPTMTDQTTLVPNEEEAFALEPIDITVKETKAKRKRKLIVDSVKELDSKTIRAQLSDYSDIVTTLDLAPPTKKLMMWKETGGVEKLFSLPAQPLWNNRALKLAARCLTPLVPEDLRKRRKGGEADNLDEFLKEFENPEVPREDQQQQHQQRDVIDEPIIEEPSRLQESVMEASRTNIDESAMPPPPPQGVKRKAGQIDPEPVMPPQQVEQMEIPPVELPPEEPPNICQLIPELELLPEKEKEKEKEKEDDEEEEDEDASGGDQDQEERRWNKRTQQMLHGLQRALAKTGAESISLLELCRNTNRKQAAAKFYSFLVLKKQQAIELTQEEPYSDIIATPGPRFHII

[3] = target: T3, C-terminal fragment (451–631 aa) of Rad21 (Rad21 CT), expressed in 293 T cells (human) (UniProt O60216); assay: co-IP; 293 T cells transfected with differently tagged (Flag, HA) Rad21 NT, MP or CT fragments; IP from cell lysates 40 h after transfection; blots of the other copy and of endogenous proteins
T3 sequence: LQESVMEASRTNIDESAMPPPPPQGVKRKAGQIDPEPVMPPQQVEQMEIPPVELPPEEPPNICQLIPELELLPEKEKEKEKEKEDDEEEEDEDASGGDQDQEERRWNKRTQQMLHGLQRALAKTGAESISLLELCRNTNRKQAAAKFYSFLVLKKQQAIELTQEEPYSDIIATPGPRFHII

[4] = target: T4, N-terminal fragment (1–172 aa) of Rad21 (Rad21 NT), expressed in 293 T cells (human) (UniProt O60216); assay: as above
T4 sequence: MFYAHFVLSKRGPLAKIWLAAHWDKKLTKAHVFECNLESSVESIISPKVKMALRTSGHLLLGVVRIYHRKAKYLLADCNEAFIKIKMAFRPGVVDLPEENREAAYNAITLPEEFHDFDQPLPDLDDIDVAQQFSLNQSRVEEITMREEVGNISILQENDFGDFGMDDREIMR

[5] = target: T5, middle part (173–450 aa) of Rad21 (Rad21 MP), expressed in 293 T cells (human) (UniProt O60216); assay: as above
T5 sequence: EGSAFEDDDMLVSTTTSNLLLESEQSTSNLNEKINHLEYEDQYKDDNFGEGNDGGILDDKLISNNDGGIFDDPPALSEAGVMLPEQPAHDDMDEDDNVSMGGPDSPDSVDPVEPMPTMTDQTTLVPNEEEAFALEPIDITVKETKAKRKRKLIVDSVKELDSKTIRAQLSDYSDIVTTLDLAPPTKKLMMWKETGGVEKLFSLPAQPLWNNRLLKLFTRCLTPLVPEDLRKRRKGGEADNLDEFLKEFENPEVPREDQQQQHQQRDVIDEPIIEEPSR

B1: endogenous Smc1 (protein, UniProt Q14683 1-1233)
chain: MGFLKLIEIENFKSYKGRQIIGPFQRFTAIIGPNGSGKSNLMDAISFVLGEKTSNLRVKTLRDLIHGAPVGKPAANRAFVSMVYSEEGAEDRTFARVIVGGSSEYKINNKVVQLHEYSEELEKLGILIKARNFLVFQGAVESIAMKNPKERTALFEEISRSGELAQEYDKRKKEMVKAEEDTQFNYHRKKNIAAERKEAKQEKEEADRYQRLKDEVVRAQVQLQLFKLYHNEVEIEKLNKELASKNKEIEKDKKRMDKVEDELKEKKKELGKMMREQQQIEKEIKEKDSELNQKRPQYIKAKENTSHKIKKLEAAKKSLQNAQKHYKKRKGDMDELEKEMLSVEKARQEFEERMEEESQSQGRDLTLEENQVKKYHRLKEEASKRAATLAQELEKFNRDQKADQDRLDLEERKKVETEAKIKQKLREIEENQKRIEKLEEYITTSKQSLEEQKKLEGELTEEVEMAKRRIDEINKELNQVMEQLGDARIDRQESSRQQRKAEIMESIKRLYPGSVYGRLIDLCQPTQKKYQIAVTKVLGKNMDAIIVDSEKTGRDCIQYIKEQRGEPETFLPLDYLEVKPTDEKLRELKGAKLVIDVIRYEPPHIKKALQYACGNALVCDNVEDARRIAFGGHQRHKTVALDGTLFQKSGVISGGASDLKAKARRWDEKAVDKLKEKKERLTEELKEQMKAKRKEAELRQVQSQAHGLQMRLKYSQSDLEQTKTRHLALNLQEKSKLESELANFGPRINDIKRIIQSREREMKDLKEKMNQVEDEVFEEFCREIGVRNIREFEEEKVKRQNEIAKKRLEFENQKTRLGIQLDFEKNQLKEDQDKVHMWEQTVKKDENEIEKLKKEEQRHMKIIDETMAQLQDLKNQHLAKKSEVNDKNHEMEEIRKKLGGANKEMTHLQKEVTAIETKLEQKRSDRHNLLQACKMQDIKLPLSKGTMDDISQEEGSSQGEDSVSGSQRISSIYAREALIEIDYGDLCEDLKDAQAEEEIKQEMNTLQQKLNEQQSVLQRIAAPNMKAMEKLESVRDKFQETSDEFEAARKRAKKAKQAFEQIKKERFDRFNACFESVATNIDEIYKALSRNSSAQAFLGPENPEEPYLDGINYNCVAPGKRFRPMDNLSGGEKTVAALALLFAIHSYKPAPFFVLDEIDAALDNTNIGKVANYIKEQSTCNFQAIVISLKEEFYTKAESLIGVYPEQGDCVISKVLTFDLTKYPDANPNPNEQ
binding [1]: binds
binding [2]: binds
binding [3]: binds
binding [4]: no binding
binding [5]: no binding
